Laboratory results as given in the RNAGym collection of RNA variant scans (doi:10.7554/elife.90254).
Read counts are not given, so values of variants with three or more changes are uncertain.

B1: LINE1-mini (parent)
chain: GGCAGAGCUCAACACAGCGUGGCAAAGUGGCUGUGGCUAGACUGCC

Variants of: B1
Test: self-cleavage, relative activity (ratio to wild type); higher = more cleavage; in vitro, sequencing; the parent is a self-cleaving ribozyme

Variant	self-cleavage
A6C C8A U20C G27A U38A G40U U43G	0.02
G1A G2A A12C G30A G36U A39C G44C	0.03
G2A C3A C13G G22C A24G G44C	0.11
G17C G30U C31A	0.13
C3G A16U G17U A26C G40U	0.13
C10G A25G G29C U38G C45U	0.01
G22A A25C C45A	0.26
G17C G19U U20C G27A A39C	0.16
G36A C37A G40C	0.14
C8A C10U C15G C23A G40U C46A	0.03
G2C A12C G44A	0.09
C18U G22U U28A	1.35
G17U C18A A41G	0.01
C18A C31U C46U	0.04
G2U G5A C13U	0.04
C23G A26C A41C	0.03
G2C G35U U43G	0
G7U U20C G36C	0.03
A12G G22A A25C C46A	0.02
A4C U9C G22C	0.03
A16U C18G G40A	0.02

Variant	self-cleavage
C10G U32A A39G A41U	0.02
C15A G19A U34G	0.06
G5A G17C G22C	0.05
U9A C10A G17U C31A G33A	0.04
A4U U28C G44C	0.12
G7C C23A C37U A39C C46U	0.05
C18A G19U A26G G36A A41C	0.04
C13G C23U G40C	0.01
C10G C23U G36A	0.03
G1C A39U C46G	0.14
G1C C42U U43C	0.04
G7A A12U A26G C31U	0.08
A4C C8U G19C A39G	0
C10G A14U U34C U43C	0.01
C3G G7C G27U	0.04
G21U G22A G33A	0.52
G2A A11G A14U A16U A25C G30U	0.01
G2A A4U G5U G7C A12C C15A U32C	0.1
G21A G22A C23U C37G	0.01
A11C G17C U28G	0
C10U G17A C42U	0.03

Variant	self-cleavage
C3A A4C A11U	0.04
C15G C37G A39C	0.05
A11U A16C G17A A26U G35C	0.01
G5A C8G G27U	0.03
G1U U32A G33C G35A	0.04
G5U U38C G40U	0.07
G1C G5C A39G C42U	0.03
C18A G36C G44C	0.02
C3U G7A U9G C31A	0.11
C13A A24G G27C	0.06
A16C G27C A41C	0.02
C10A C31U C45U	0.03
G5U G36C A41G	0.07
G7U C18A G30U A41U	0.07
C8G A24U C46U	0.08
A4C C18A G35C	0.02
A6C C13U G27U U38G	0.02
G1A G40A C42A	0.23
G30U G33A C42U	0.05
C3A C13G U38G	0.02
A4U U32A C45U	0.02

Variant	self-cleavage
C8U A11C A25U	0.01
G19A G21C G30U C37G	0.01
G5C C10A G21U G36U	0.06
A4U C8G C15A U28G A39G	0.06
A6G C10A U28G G35U	0.04
G2A G7A G21A C31U U43A	0.36
U9C C15U G27A C46G	0.03
A6C G40U C45A	0.04
G1U U9G G27U C37U	0.03
C10U A26C G44U	0.08
A24G A26G G29U	0.39
A4G C10A C15A U28G	0.02
C3A C8G C23A G35A A41C	0.05
U9A C13U U38G	0.08
C8A U28A C31U	0.09
U32G C37A C42U C45A	0.05
C37G A41C C45A	0.03
G19C G27U G30C	0.1
C18U G19C C42A	0.16
A39G G40C C42U	0
